To fix the notation:
T1: hThrRS-L-Ha/A-FLAG (human) (UniProt A2RTX5)
T1 sequence: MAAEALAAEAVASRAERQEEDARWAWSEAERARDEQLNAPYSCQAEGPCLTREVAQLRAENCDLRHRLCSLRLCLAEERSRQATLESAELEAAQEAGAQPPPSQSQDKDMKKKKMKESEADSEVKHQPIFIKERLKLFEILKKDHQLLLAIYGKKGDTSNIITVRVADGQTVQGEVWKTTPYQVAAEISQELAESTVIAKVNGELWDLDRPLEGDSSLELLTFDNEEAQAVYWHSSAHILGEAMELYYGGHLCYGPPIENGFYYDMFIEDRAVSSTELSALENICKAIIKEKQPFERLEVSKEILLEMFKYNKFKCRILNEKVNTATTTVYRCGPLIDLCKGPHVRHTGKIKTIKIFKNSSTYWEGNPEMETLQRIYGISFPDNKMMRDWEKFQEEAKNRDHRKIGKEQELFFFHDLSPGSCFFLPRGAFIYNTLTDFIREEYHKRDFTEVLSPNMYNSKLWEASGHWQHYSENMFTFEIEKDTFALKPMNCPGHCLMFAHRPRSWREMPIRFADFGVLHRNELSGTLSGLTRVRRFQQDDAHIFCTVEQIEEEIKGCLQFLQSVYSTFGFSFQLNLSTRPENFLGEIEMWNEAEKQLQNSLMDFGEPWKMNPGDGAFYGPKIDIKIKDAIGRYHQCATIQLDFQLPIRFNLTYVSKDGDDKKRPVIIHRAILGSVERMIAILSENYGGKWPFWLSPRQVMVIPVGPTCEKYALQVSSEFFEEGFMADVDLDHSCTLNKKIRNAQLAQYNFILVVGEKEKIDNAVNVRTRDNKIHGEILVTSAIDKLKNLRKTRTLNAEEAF

T2: hThrRS-L-T163D with a C-terminal FLAG tag (human) (UniProt A2RTX5)
T2 sequence: T1 sequence with A15L, A22I, A25L, A29V, A32L, T163D

T3: hThrRS-L-T449D with a C-terminal FLAG tag (human) (UniProt A2RTX5)
T3 sequence: T1 sequence with A15L, A22I, A25L, A29V, A32L, T449D

B1: ArgRS, endogenous in human cells (enzyme, UniProt P54136 1-660)
chain: MDVLVSECSARLLQQEEEIKSLTAEIDRLKNCGCLGASPNLEQLQEENLKLKYRLNILRKSLQAERNKPTKNMINIISRLQEVFGHAIKAAYPDLENPPLLVTPSQQAKFGDYQCNSAMGISQMLKTKEQKVNPREIAENITKHLPDNECIEKVEIAGPGFINVHLRKDFVSEQLTSLLVNGVQLPALGENKKVIVDFSSPNIAKEMHVGHLRSTIIGESISRLFEFAGYDVLRLNHVGDWGTQFGMLIAHLQDKFPDYLTVSPPIGDLQVFYKESKKRFDTEEEFKKRAYQCVVLLQGKNPDITKAWKLICDVSRQELNKIYDALDVSLIERGESFYQDRMNDIVKEFEDRGFVQVDDGRKIVFVPGCSIPLTIVKSDGGYTYDTSDLAAIKQRLFEEKADMIIYVVDNGQSVHFQTIFAAAQMIGWYDPKVTRVFHAGFGVVLGEDKKKFKTRSGETVRLMDLLGEGLKRSMDKLKEKERDKVLTAEELNAAQTSVAYGCIKYADLSHNRLNDYIFSFDKMLDDRGNTAAYLLYAFTRIRSIARLANIDEEMLQKAARETKILLDHEKEWKLGRCILRFPEILQKILDDLFLHTLCDYIYELATAFTEFYDSCYCVEKDRQTGKILKVNMWRMLLCEAVAAVMAKGFDILGIKPVQRM
B2: native p43 (AIMP1), endogenous in human cells (protein, UniProt Q12904-2 1-336)
chain: MLPAVAVSEPVVLRFMIFCRLLAKMANNDAVLKRLEQKGAEADQIIEYLKQQVSLLKEKAILQATLREEKKLRVENAKLKKEIEELKQELIQAEIQNGVKQIPFPSGTPLHANSMVSENVIQSTAVTTVSSGTKEQIKGGTGDEKKAKEKIEKKGEKKEKKQQSIAGSADSKPIDVSRLDLRIGCIITARKHPDADSLYVEEVDVGEIAPRTVVSGLVNHVPLEQMQNRMVILLCNLKPAKMRGVLSQAMVMCASSPEKIEILAPPNGSVPGDRITFDAFPGEPDKELNPKKKIWEQIQPDLHTNDECVATYKGVPFEVKGKGVCRAQTMSNSGIK
B3: native hThrRS, endogenous in HEK293T (enzyme, UniProt P26639 1-723)
chain: MFEEKASSPSGKMGGEEKPIGAGEEKQKEGGKKKNKEGSGDGGRAELNPWPEYIYTRLEMYNILKAEHDSILAEKAEKDSKPIKVTLPDGKQVDAESWKTTPYQIACGISQGLADNTVIAKVNNVVWDLDRPLEEDCTLELLKFEDEEAQAVYWHSSAHIMGEAMERVYGGCLCYGPPIENGFYYDMYLEEGGVSSNDFSSLEALCKKIIKEKQAFERLEVKKETLLAMFKYNKFKCRILNEKVNTPTTTVYRCGPLIDLCRGPHVRHTGKIKALKIHKNSSTYWEGKADMETLQRIYGISFPDPKMLKEWEKFQEEAKNRDHRKIGRDQELYFFHELSPGSCFFLPKGAYIYNALIEFIRSEYRKRGFQEVVTPNIFNSRLWMTSGHWQHYSENMFSFEVEKELFALKPMNCPGHCLMFDHRPRSWRELPLRLADFGVLHRNELSGALTGLTRVRRFQQDDAHIFCAMEQIEDEIKGCLDFLRTVYSVFGFSFKLNLSTRPEKFLGDIEVWDQAEKQLENSLNEFGEKWELNSGDGAFYGPKIDIQIKDAIGRYHQCATIQLDFQLPIRFNLTYVSHDGDDKKRPVIVHRAILGSVERMIAILTENYGGKWPFWLSPRQVMVVPVGPTCDEYAQKVRQQFHDAKFMADIDLDPGCTLNKKIRNAQLAQYNFILVVGEKEKISGTVNIRTRDNKVHGERTISETIERLQQLKEFRSKQAEEEF

Where a chain is given by its changes, count along the chain named. No constants are given. Whether binding was seen depends on the method and setting. Binding seen in cells or lysates may run through a third protein. Some binding calls cover weakened binding; strength is not graded here. Tags and fused reporters may be left off the sequences shown.

In the first assay the target is T1, hThrRS-L-Ha/A-FLAG (human). The assay is described as follows: co-IP; FLAG-tagged hThrRS-L or mutant overexpressed in HEK293T; IP with anti-FLAG, Dynabeads protein G, 4°C; endogenous partners detected by western blotting.
Regarding B1, the binding entry is “no binding”.
Same read-out and setting: under B2 stands “no binding”; under B3, “binds”.

A further assay concerns the target T2, hThrRS-L-T163D with a C-terminal FLAG tag (human). Described as above.
B1: the binding entry is on record as “binds”.
On to B2, for which the binding entry is “binds”.
With B3, the binding result is on record as “binds”.

The target in the next assay is T3, hThrRS-L-T449D with a C-terminal FLAG tag (human). Described as above.
In the case of B1, the binding entry is given as “binds”.
Still for that read-out and setting: to B2 belongs “binds”; to B3, “binds”.

The values above are taken from paper PMC6794377.
